# Read counts are not given, so values of variants with three or more changes are uncertain.
# B1: LINE1-full (parent)
# chain: UACGUAGGUGGUUUUCCCCUGAUAGUGCUAAGGGGGCCUGGAAGUUUGGACUGGGCAGAGCUCAACACAGCGUGGCAAAGUGGCUGUGGCUAGACUGCCUCUCUGGAUUCCUCGUCACUCAGCAGGGCAUCUCUGAGAGAAAUGCC
# Variants of: B1
# Assay: self-cleavage, relative activity (ratio to wild type); higher = more cleavage; in vitro, sequencing; the parent is a self-cleaving ribozyme
row,Variant,self-cleavage
1,A69G G74A A124G,0.12
2,A69G G74A U81C A121C,0.51
3,A69G G89U C123U,0.04
4,A69G G125U U143A,0.53
5,A69G G135A U143A,0.34
6,A69G U73C C84U A129G A142G,0
7,A69G U85C A140G,1.67
8,A69G U85C U134C,0.97
9,A69G U87A A136U,0.03
10,A69G U87A C116U A136G U143C,0.04
11,A69G U87A U108C,0.03
12,A69G U87C G97A A117G,0
13,A69G U91C U119C,0
14,A69G U96C U109A,0.09
15,A69G U96C U134G,0.84
16,A69G U100C G144A,0.98
17,A69G U108C U112A,0.66
18,A69G U108C U112A A140G,1.34
19,A69G U108C U119C A141U,0
20,A69G U109A A124U A141G,0.36
21,A69G U112A A136G,0.46
22,A69G U112C G122A A140G,0.09
23,A69G U112C U115A,1.21
24,A69G U115C A136G,0.4

row,Variant,self-cleavage
1,A69G U132A U134G,0.4
2,A69U A79C A136G,0
3,A69U A79G U81C A124G,0
4,A69U A79G U119C,0.29
5,A69U A92G G139A,0.07
6,A69U C71U U73A,0.07
7,A69U C71U U85C,0.08
8,A69U C90G A107G A124G,0
9,A69U G72A U102A U119C A142G,0.06
10,A69U G72A U132C,0.06
11,A69U G75A A79G U102C A142G,0
12,A69U U73A A94U A138G,0
13,A69U U73A A140G,0
14,A69U U73C A136G,0.05
15,A69U U73C A142G,0.06
16,A69U U81C U91C U112C A136G,0
17,A69U U81G U102C,0.06
18,A69U U85C U87C,0
19,A69U U87C U100C A107G A138G,0
20,A69U U87C U108C U132C,0
21,A69U U91C G105A U112C,0.02
22,A69U U91C G126U A142G,0.13
23,A69U U91C U112A U119A U143C,0
24,A69U U96C A141G A142G,0

row,Variant,self-cleavage
1,A69U U100A A138G,0.02
2,A69U U100C U104C U108C,0
3,A69U U100C U130C A138G,0.3
4,A69U U102C A141G,0.04
5,A69U U108A A129G,0.04
6,A69U U108C A129U,0.09
7,A69U U132A U143A,0.07
8,G70A A77C U112C A141G,0.12
9,G70A U96C A136U,0.03
10,G70C A92G U102C A129U,0.08
11,G70U U104G U112C,0.04
12,G70U U134C A142G U143A,0.08
13,C71A A77G A124U,0.35
14,C71A A77U U100C A124G U130C A142G,1.73
15,C71A A121U A129G,0.22
16,C71A A129G A138G,0.28
17,C71A U73A U81C U115C,0.12
18,C71A U73G A140G A142U,0.03
19,C71A U96C A117G,0.03
20,C71A U104C A121G,0.77
21,C71G A77G C110U,0.57
22,C71G U100C G114C U134C G139A,1.45
23,C71G U102G C103U A107U A142G,1.18
24,C71U A78G U109C A124G,0.19

row,Variant,self-cleavage
1,C71U A94G C131U,0.11
2,C71U A117U U143C,1.25
3,C71U U73C U96C A129U,0.05
4,C71U U81A U91A A138G,0.43
5,C71U U87A U91C,0.02
6,C71U U87A U100C U102C C123U A129G,0
7,C71U U91C A94G A124G,0
8,C71U U96C U109C,0.08
9,G72A A78U A117U U143C,2.25
10,G72A A79G U132A A141G,1.21
11,G72A A94G A107G,0.27
12,G72A A94G U104G,0.17
13,G72A A107G A141U,1.43
14,G72A G89A U130C,0
15,G72A U85A A124G,0.02
16,G72A U87C U134C,0
17,G72A U91C U112C A124U,0.45
18,G72A U96A C110U U112A A124U A142G,0
19,G72A U102G A138G U143C,2.12
20,G72A U108A U134C,1.31
21,G72U A78G U81G A136U A141G,0.46
22,G72U G106U U130C,0.89
23,G72U G139C A140G,1.44
24,U73A A78G A124G,0.26

row,Variant,self-cleavage
1,U73A A78G U108C,0.38
2,U73A A92C U108C,0.12
3,U73A A92G U96C,0.15
4,U73A A92G U112C A138G,0
5,U73A A92U A140G,0.36
6,U73A A92U A140U,1.01
7,U73A A94G A138G,0.23
8,U73A A107G U130C A140U A141G,1.23
9,U73A A117G A140G,0.88
10,U73A A121G U134A,1.91
11,U73A C99G A138G,0.77
12,U73A G80A C84U C146U,0.35
13,U73A G105A U112C,1.35
14,U73A G106C A142G,1.43
15,U73A G125U U134C,1.62
16,U73A G135A A136G,1.85
17,U73A U81A C90A U108C A117U,0.18
18,U73A U81A U91C U130C,1
19,U73A U81A U143C,1.68
20,U73A U85C C101A U108C,0.29
21,U73A U85C U104G,0
22,U73A U85C U109C U112C C120U,0.08
23,U73A U85C U112C,0.11
24,U73A U87A A138G A141G,0.01

row,Variant,self-cleavage
1,U73A U87C U96A G106A A140U,0.03
2,U73A U96C A117U,0.07
3,U73A U100A C123U,1.52
4,U73A U100C U130C A140G,2.1
5,U73A U100C U132C,2.82
6,U73A U108C U130C,1.84
7,U73A U109A C116U,1.03
8,U73A U109C C146U,0.89
9,U73A U115A A124U A142G,1.14
10,U73A U115C U134C,2.02
11,U73A U130A A138U,1.36
12,U73C A77G G86A A141G U143C,0.29
13,U73C A78G A141G,0.47
14,U73C A78G U104A,1.48
15,U73C A78G U112C,0
16,U73C A79U A92G,0.23
17,U73C A92G A124C,0.27
18,U73C A94G U115A,0.69
19,U73C A107G U115A,1.31
20,U73C A121G A136G,0.71
21,U73C A121G A138G,1.31
22,U73C A142G U143C,1.84
23,U73C C101U A121U,2.3
24,U73C C103U U104C,1.94

row,Variant,self-cleavage
1,U73C C111U C116U C123U,2.05
2,U73C C118U A138G,2.5
3,U73C C120U A138U U143A,1.62
4,U73C G74C U96A,0
5,U73C G93A A136U,0.04
6,U73C U81A A94G,0.2
7,U73C U85C A136U,0.06
8,U73C U85G A129C U134A,0.68
9,U73C U87A A136G A142G,0.3
10,U73C U87A U115C,0.33
11,U73C U96C U104C C128U,0
12,U73C U102C U132C,1.84
13,U73C U108C A129G,0.48
14,U73C U109A G122U,1.56
15,U73C U112C A141G,2.21
16,U73C U130C U132G G137A,2.04
17,U73C U134C A136G,1.15
18,U73G A77G A129G,2.87
19,U73G A78G U109C,0.35
20,U73G A94G G97A G126U,0
21,U73G A121U U143C,1.73
22,U73G U134G A141G,1.48
23,G74A A77G A78G U100A,0.28

# — the RNAGym collection of RNA variant scans (doi:10.7554/elife.90254)
